# Laboratory results published in PubChem BioAssay AID686971 (National Center for Advancing Translational Sciences (NCATS), 2013).
# The campaign covered roughly 360,000 compounds. About 7,500 (2.1%) were called active. The inconclusive results got no clear call from the source; some entries with a clear call stand among them for comparison. The call rests on the fitted dose curve; in most records, active means well fitted cell-killing curve with a large enough effect; inconclusive means small, poorly fitted or top-dose-only effect, or effect the other way, or another doubt; inactive means no such curve, though single readings can be large or run the other way. Potencies of inconclusive entries are left out as doubtful fits.
# Assay: qHTS for induction of synthetic lethality in tumor cells producing 2HG: qHTS for the HT-1080-IDH1KD cell line;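 on activity, negative = toxicity: 0% = DMSO wells and -100% = cell-free medium wells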
# Conditions: HT-1080 IDH1 knockdown viability, ATP luminescence, 48 h; activity, negative = toxicity: at 46.1 µM (top of the series) unless noted
# Method in brief: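 Using the IDH1-knockdown HT-1080 line run in the same batch and compound series as the NT line, viability after 48 h at 37 °C was determined by CellTiter-Glo luminescence and expressed as % activity.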
# Potency means the concentration at half of the fitted maximal effect; tags describe the fitted curve by direction and shape.
Compound,Potency,"activity, negative = toxicity"
COc1cc(CNC2CCCC2)cc(Cl)c1OCc1ccc(F)cc1,active: 20.6 µM,
CCn1c(/C=C/c2ccc([N+](=O)[O-])o2)nc2ccccc2c1=O,active: 2.59 µM,
CCOc1ccc(CCN2C(=O)C(=O)N([C@@H](Cc3ccccc3)CN3CCC[C@H]3CN3C(=O)C(=O)NC[C@@H]3Cc3ccccc3)C[C@@H]2Cc2ccc(O)cc2)cc1,"inconclusive [cytotoxic, single point]",
CCOC(=O)Cc1nc(-c2ccccc2)n[nH]1,"inconclusive [rising, partial curve, poor fit]",
COc1ccc(NC2=C(NCCO)C(=O)c3ccccc3C2=O)cc1,active: 8.2 µM,
CC1(C)C([N+](=O)[O-])C(c2ccc(Cl)cc2)NC(c2ccc(Cl)cc2)C1[N+](=O)[O-] (stereo not given),inactive,
COc1cc(-c2cnc3c(NC=O)cc(-c4ccc(S(C)(=O)=O)cc4)cn23)cc(OC)c1OC,"inconclusive [cytotoxic, partial curve]",
O=C1C(CN2CCCC2)CCCC1CN1CCCC1 (stereo not given),"inconclusive [cytotoxic, single point]",
COc1ccc(OC)c(NC(=O)C2(C)CCN2Cc2cccc(OC)c2OC)c1 (stereo not given),"inconclusive [cytotoxic, single point]",
O=C(c1ccccc1)N(Cc1ccc(F)cc1)Cc1nc2ccccc2c(=O)[nH]1,active: 6.31 µM,
COc1ccc(S(=O)(=O)N(C)CC(=O)NCc2ccco2)cc1OC,inactive,
O=C(NCCc1c[nH]c2ccccc12)c1ccc2c(c1)OCO2,inactive,
CCc1nc2c(OCC=C(C)C)cccn2c1N(C)C(=O)c1ccc(OC)cc1,"inconclusive [cytotoxic, partial curve, poor fit]",
O=C(Nc1ccc(F)cc1)C(Sc1nc2ccccc2[nH]1)c1ccccc1 (stereo not given),"inconclusive [cytotoxic, single point]",
CN1C2C=C3C(C#N)=C(N)C(C#N)(C#N)C(c4ccc(Br)cc4)C3C1CC2 (stereo not given),inactive,
COc1ccc(NC(=O)C#Cc2ccccc2)cc1,"inconclusive [cytotoxic, partial curve]",
O=C(O)c1cccc(NC(=O)c2ccc(N3C(=O)c4ccc(C(=O)Nc5cccc(C(=O)O)c5)cc4C3=O)cc2)c1,"inconclusive [cytotoxic, single point]",
CCN(CC)S(=O)(=O)c1cc(NC(=O)CSc2nc3c(cc2C#N)C(=O)CC(C)(C)C3)ccc1C,"inconclusive [cytotoxic, full curve]",
CCc1ccc(NC(=O)N(C2CCCCC2)C(C)c2cccnc2)cc1 (stereo not given),inactive,
CCOC(=O)CN(C)C(=O)CCc1nnc(-c2ccc(-c3ccccc3)cc2)o1,inactive,
O=[N+]([O-])c1ccc(C(O)CN=Cc2ccc(O)cc2O)cc1 (stereo not given),active: 8.2 µM,
CC(C)n1c(=S)[nH]c2ccccc2c1=O,"inconclusive [cytotoxic, single point]",
C[C@@]12C(=O)Nc3cc(F)ccc3C(=O)N1[C@H]1c3ccccc3OC[C@@H]1[C@@H]2c1ccccc1,"inconclusive [cytotoxic, single point]",

Compound,Potency,"activity, negative = toxicity"
Cc1cc(NC(=O)CSc2nc(-c3cccs3)cc(C(F)(F)F)n2)no1,active: 0.501 µM,
COc1ccc(NC(=O)C2(C)Cc3c(-c4ccc(NC(C)=O)cc4)ccnc3O2)cc1 (stereo not given),inactive,
c1ccc(-c2ccc(SCc3cccnc3)nn2)nc1,"inconclusive [cytotoxic, single point]",
O=C1C2C3C=CC(C3)C2C(=O)N1c1ccc(Cc2ccncc2)cc1 (stereo not given),"inconclusive [cytotoxic, partial curve]",
NC(=O)CC(NC(=O)Cc1ccc(Br)cc1)c1ccc(N2CCC(Cc3ccccc3)CC2)c([N+](=O)[O-])c1 (stereo not given),"inconclusive [cytotoxic, partial curve]",
COc1ccc(/C=C2\CN(Cc3ccccc3)C/C(=C\c3ccc(OC)c(O)c3)C2=O)cc1O,active: 2.31 µM,
CC(C)CC(N)c1csc(Nc2ncccn2)n1 (stereo not given),"inconclusive [cytotoxic, full curve]",
OC1(c2cccc(C(F)(F)F)c2)CCN(c2ncnc3c2[nH]c2ccc(F)cc23)CC1,active: 18.4 µM,
COCc1cc(C)n(CC(=O)Nc2ccc3c(c2)OCO3)c(=O)c1C#N,inactive,
Cc1ccc(S(=O)(=O)N2CCCCC2CCNC(=O)C(=O)Nc2ccccc2F)cc1 (stereo not given),inactive,
O=C(CCCSc1nc2ccccc2[nH]1)NCc1ccccc1Cl,inactive,
CCOC(=O)CCc1c(C(=O)OCC)[nH]c(CC)c1C(=O)OCc1ccccc1,"inconclusive [cytotoxic, single point]",
COc1ccc(CN(C(=O)c2nsc(Cl)c2Cl)C(C(=O)NC2CCCC2)c2ccc(C)cc2)cc1 (stereo not given),"inconclusive [cytotoxic, single point]",
COc1ccc(-n2cc(-c3ccccc3)[n+]3c2CCCCC3)cc1,"inconclusive [cytotoxic, partial curve, poor fit]",
O=S(=O)(O)c1cc(O)c2c(O)c(N=Nc3cc(Cl)ccc3O)c(S(=O)(=O)O)cc2c1,"inconclusive [cytotoxic, partial curve]",
CC(C)(C)c1ccc(C(=O)CCC(=O)NCc2ccccc2)cc1,"inconclusive [cytotoxic, single point]",
O=C(NCCc1ccc(F)cc1)C(=O)NCC1CCCN1S(=O)(=O)c1cccs1 (stereo not given),"inconclusive [cytotoxic, partial curve]",
CCn1cc(C2=NC(C)CO2)c2ccccc21 (stereo not given),active: 10 µM,
O=[N+]([O-])c1ccc(N=Nc2ccc(O)c3ccccc23)cc1,"inconclusive [cytotoxic, single point]",
CC(C)c1ccc(NC(=O)Nc2cnccn2)cc1,active: 14.6 µM,
COC(=O)c1ccc(NC(=O)c2cc(Cl)ccc2OC)cc1,,inconclusive: 1.52% [cytotoxic]
O=C1NC[C@H](CCCCN2C[C@H](Cc3ccc(O)cc3)N(CCc3ccc(O)cc3)C(=O)C2=O)N(CC2CCCCC2)C1=O,"inconclusive [cytotoxic, single point]",
